# Source: the supplement of paper PMC4466236
# In all, about 33,000 sequences were measured (“E-score (dimensionless, -0.5 to 0.5)”: median about -0.058, highest 2% from about 0.35 on). Some of the results follow.
# System: MvaT
# Test: PBM 8-mer E-score (mean of HK and ME arrays) (E-score (dimensionless, -0.5 to 0.5)); higher = stronger relative binding preference; most listed sequences are background and not binding sites
# How it was run: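 Full-length P. aeruginosa MvaT, with glutathione S-transferase fused to its N-terminus (cloned into pTH6838 by isothermal assembly), was tested by protein binding microarray using a previously described protocol. Two universal double-stranded 60-mer arrays (ME and HK) were used, each with a constant 25-mer primer region and a variable 35-mer region covering all 8-mers. The rank-based 8-mer E-score (-0.5 to 0.5) is the mean of the two arrays, parsed with a custom Python script.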
row,Sequence,PBM 8-mer E-score
1,AGCACCAC,-0.21
2,ATGTTCCC,0.0221
3,AACTGCAA,0.207
4,AGTTTGAT,0.24
5,CAGACACC,-0.0553
6,CAAAGTGA,0.16
7,CAACCCCA,-0.0732
8,GGCAACGA,-0.0752
9,ACGATACG,-0.149
10,CGGTCTCC,-0.241
11,CGAAGGGA,-0.356
12,CTAGTCCA,-0.0295
13,CCCGACCG,-0.284
14,GAATCGGA,-0.0399
15,AGGCGGGC,-0.225
16,ACATGTCA,0.0432
17,AATTAGAA,0.301
18,AGTAGTGG,0.106
19,CGGGTCTA,-0.216
20,ACTGACCC,-0.197
21,AGAACTCA,-0.0844
22,ATAAAGGC,-0.0383
23,ACCCGTAC,-0.0627
24,GTTATTAA,0.383
25,AACTGCAG,-0.0112

row,Sequence,PBM 8-mer E-score
1,CCAAACCA,0.0446
2,GGCGCACC,-0.275
3,AGACGTAT,-0.0441
4,AGTGATCA,-0.052
5,GCCCCGGA,-0.364
6,GCAACCCA,0.0138
7,ACACGCAA,0.112
8,TAGGATCA,-0.0994
9,AACGCGAG,-0.174
10,GACACTTA,0.216
11,GCTGCAGA,-0.0279
12,ATGTCAAA,0.2
13,AAACACTT,0.226
14,ACGCAACG,-0.213
15,CCCCAGAC,-0.233
16,CACCGTAA,0.0765
17,ATATAGAC,0.224
18,CCCAGGTC,-0.222
19,ATTCTTAC,0.0996
20,CCTGCGCC,-0.28
21,ATTAGAGG,0.113
22,AGTCGTTC,-0.157
23,AGATGGAT,-0.00506
24,ACTCAAAA,0.0955
25,CACCTCGA,-0.244

row,Sequence,PBM 8-mer E-score
1,CATCTCTC,-0.116
2,AAAACTCG,0.0362
3,TCACTGAA,-0.0165
4,CTACAGTA,0.155
5,CCTCGACA,-0.0454
6,CTGTCAGA,-0.132
7,GACAATAC,0.149
8,CTGCAATC,-0.0619
9,TAAGATGA,0.0542
10,ATCCGTAG,-0.161
11,ATGGAGAA,0.0308
12,AGTCCGAC,-0.0922
13,AGAACGGA,0.0561
14,AGCGTTAC,0.0974
15,GGAAATAC,0.0517
16,ATTTAATA,0.411
17,AAATGGAA,0.123
18,TATGAACA,0.164
19,GCGAGGCA,-0.257
20,AAGACGCT,-0.168
21,TTATCAAA,0.156
22,GCGCTACC,-0.144
23,AAGAAGCA,-0.121
24,CGAGAAAA,0.129
25,CTAATCGC,-0.0851

row,Sequence,PBM 8-mer E-score
1,CACAAAAG,0.0627
2,CAGGGCTC,-0.343
3,GTGAGGTA,0.0259
4,CAGCCACC,-0.145
5,AGTAATAT,0.418
6,CTCAGACC,-0.184
7,GATGGCAC,-0.15
8,AGTCTGAC,-0.0126
9,AAAACTGA,0.0579
10,CACGATTA,0.0205
11,ATCCTTCG,-0.0833
12,GGTGGGTA,-0.0509
13,CGCGACCA,-0.153
14,AGATTATA,0.39
15,ATTCTCCG,-0.0509
16,AAACACGA,0.0986
17,CACACGAG,-0.0967
18,ATTTTGTA,0.194
19,TCAGCGAA,-0.0912
20,CAGCTTCA,-0.293
21,ACTCGAAT,0.103
22,CGTAGCGA,-0.233
23,CTAACGCA,-0.0805
24,GAGTCCAC,-0.279
25,ATTGCGGA,0.21

row,Sequence,PBM 8-mer E-score
1,CCGCAAGG,-0.337
2,ATGGCACA,-0.0727
3,CCGTTGAG,-0.239
4,CTCTCCAA,-0.0509
5,TCTTTTAA,0.296
6,AAGTCTCG,0.0345
7,CAAAAGTA,0.16
8,ACTAACTA,0.381
9,CCGGAGGA,-0.252
10,ATGGGCTA,0.00241
11,CCGCGGGA,-0.186
12,ACCGTAAG,0.148
13,GACCGAAA,-0.0789
14,AGTTGGGC,0.0103
15,GGTTTTTA,0.207
16,TCGTAAAA,0.149
17,CGCTGAGC,-0.223
18,CCTACGAC,-0.256
19,ACACGGCC,-0.133
20,CCAACCAA,-0.146
21,ACTAGCCG,-0.0374
22,CCTCTGCA,-0.27
23,CAGCCCTC,-0.241
24,AGGCGGTG,-0.00443
25,CTATGGCA,-0.284

row,Sequence,PBM 8-mer E-score
1,TCATGCCA,-0.0757
2,GAGAACGA,-0.25
3,CGGGGTCC,-0.264
4,AGATCTCA,-0.0537
5,GCTCGATA,-0.0114
6,GTAGTGAC,-0.0876
7,CGCATCCA,-0.25
8,AGGCATTA,0.0775
9,CATCGACG,-0.248
10,GGCTGTAA,0.00482
11,AAGGGTCG,-0.115
12,CCACATCG,-0.175
13,CGGGGATA,0.0564
14,AAGTTGTA,0.309
15,TCTCTGCA,-0.148
16,TCTGAAGA,0.16
17,AAACAACA,0.214
18,CGATTATC,0.206
19,ACGCCACC,-0.0744
20,ATAATTTG,0.298
21,AACATTGG,0.0636
22,ACAATAAA,0.356
23,CCCGTTAA,0.186
24,GCTCGAGA,-0.152
25,ACGACGCT,-0.121

row,Sequence,PBM 8-mer E-score
1,ATAGCTAC,0.00214
2,CGACGTCC,-0.271
3,AGACATCA,-0.066
4,CAGGGTTA,-0.000473
5,ACTGTCAC,-0.0625
6,AGGTGTTA,0.0743
7,GCTTATGA,-0.0922
8,GTTGTACA,0.115
9,GGCCATGA,-0.203
10,GCCGTTGA,-0.28
11,CGCACCAA,-0.207
12,ACGAATTC,0.0502
13,GGGATCGA,-0.139
14,ACCGTACC,-0.217
15,GTACCGAA,-0.0613
16,AGCTGGGG,-0.186
17,CAGCCCCC,-0.34
18,CTGGGAGA,-0.163
19,ATATGGAG,0.154
20,GATCCCGA,-0.0935
21,CCCCCGGC,-0.255
22,CACGGCTG,-0.201
